Test results as given in article PMC4914337.
No constants are given. Whether binding was seen depends on the method and setting. For some assays here: Binding seen in cells or lysates may run through a third protein. Some results given as binding are weak or reduced against the parent protein; the word gives no strength.

Chains of the proteins cited; added tags and fusions are not shown. Lines headed by an entry give the natural chain unless they say otherwise; changes in a name come on top. A line that says so, or that is headed by a name, gives the form on record, which may keep a tag or linker. Residues count along the entry.
UniProt P10451, residues 17-314: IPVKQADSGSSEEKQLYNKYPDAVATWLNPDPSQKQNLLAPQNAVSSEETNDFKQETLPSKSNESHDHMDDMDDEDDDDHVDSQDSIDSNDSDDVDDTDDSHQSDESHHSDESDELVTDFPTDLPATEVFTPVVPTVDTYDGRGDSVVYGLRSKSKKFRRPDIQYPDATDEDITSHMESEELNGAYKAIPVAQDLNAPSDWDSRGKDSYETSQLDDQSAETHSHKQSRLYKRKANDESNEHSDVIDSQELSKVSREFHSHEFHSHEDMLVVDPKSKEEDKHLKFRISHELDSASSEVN
UniProt P08670: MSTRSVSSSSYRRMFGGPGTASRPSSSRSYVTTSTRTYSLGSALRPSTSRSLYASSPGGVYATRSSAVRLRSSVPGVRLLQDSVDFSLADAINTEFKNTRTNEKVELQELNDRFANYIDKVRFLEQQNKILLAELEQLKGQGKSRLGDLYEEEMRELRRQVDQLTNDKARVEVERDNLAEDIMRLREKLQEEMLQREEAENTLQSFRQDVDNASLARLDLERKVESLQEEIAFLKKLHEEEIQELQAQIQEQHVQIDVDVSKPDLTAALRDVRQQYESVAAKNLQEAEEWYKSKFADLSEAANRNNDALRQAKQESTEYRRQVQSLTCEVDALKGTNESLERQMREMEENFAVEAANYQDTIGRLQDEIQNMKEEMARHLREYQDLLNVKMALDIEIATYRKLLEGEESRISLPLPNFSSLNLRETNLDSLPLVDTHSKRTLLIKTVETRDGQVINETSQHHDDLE
His-EGFP-tagged vimentin VIM97-466, purified from HEK-293T cells: residues 97-466 of P08670
His-EGFP-tagged vimentin VIM 246-466, purified from HEK-293T cells: residues 246-466 of P08670

Experiments:
[1] = target: Flag-OPN (osteopontin) expressed in MHCC-97L cells (UniProt P10451); experiment: co-IP; MHCC97L cells co-transfected with EGFP-tagged vimentin deletion mutants and the OPN-Flag construct; lysates precipitated with anti-Flag beads; immunoblot with anti-EGFP and anti-Flag
[2] = target: His-EGFP-tagged vimentin VIM 246-466, purified from HEK-293T cells (human) (UniProt P08670); experiment: pull-down; in vitro binding assay: 2 μg FLAG-OPN with about the same amount of His-EGFP-tagged vimentin proteins in 0.2% Triton X-100, 50 mM Tris-Cl pH 7.5, 100 mM NaCl, 15 mM EGTA, 1 mM DTT; pulled down with Anti-His Affinity Resin, four washes (0.5% Triton X-100); Western blot; both purified
[3] = target: His-EGFP-tagged vimentin VIM97-466, purified from HEK-293T cells (human) (UniProt P08670); experiment: as above
[4] = target: Flag-vimentin expressed in MHCC-97L cells (human) (UniProt P08670); experiment: co-IP; HCC cells (Hep3B, MHCC-97L) transfected with Flag-OPN or Flag-vimentin, empty vector as control; RIPA lysate on M2 anti-Flag mAb agarose beads overnight at 4°C, five washes with RIPA, elution with Flag peptide; immunoblot with reciprocal antibodies
[5] = target: Flag-OPN (osteopontin) expressed in MHCC-97L cells (UniProt P10451); experiment: as above
[6] = target: Flag-OPN (osteopontin) produced in Hep3B cells (UniProt P10451); experiment: as above

binding [1] | Substance | other results
no binding | EGFP-tagged vimentin deletion mutant VIM1-245, in MHCC97L cells (from UniProt P08670 1-245) (domain or fragment) | 
binds | EGFP-tagged vimentin deletion mutant VIM97-466, in MHCC97L cells (from UniProt P08670 97-466) (domain or fragment) | 
binds | EGFP-tagged vimentin deletion mutant VIM 246-466, in MHCC97L cells (from UniProt P08670 246-466) (domain or fragment) | 
binds | vimentin, endogenous full-length, in MHCC-97L cells (from UniProt P08670 1-466) | binding [5]: binds

The next lines start with the substance.

Substance | binding [1] | other results
EGFP-tagged vimentin deletion mutant VIM1-96, in MHCC97L cells (from UniProt P08670 1-96) (domain or fragment) | no binding | 
EGFP-tagged vimentin deletion mutant VIM407-466, in MHCC97L cells (from UniProt P08670 407-466) (domain or fragment) | no binding | 
FLAG-OPN protein purified from HEK-293T cells (from UniProt P10451 17-314) |  | binding [2]: binds; binding [3]: binds
OPN (osteopontin) in MHCC-97L cells transfected with Flag-vimentin (from UniProt P10451 17-314) |  | binding [4]: binds
vimentin, endogenous in Hep3B cells (from UniProt P08670 1-466) |  | binding [6]: binds
